From article PMC10691697, “A small molecule exerts selective antiviral activity by targeting the human cytomegalovirus nuclear egress complex” (PLOS Pathogens, 2023)

Legend:
[1] = biological target: T1, UL50_C54S+UL53 (Human cytomegalovirus, UniProt P16794); test: biochemical; assay type: binding; conditions: 6.25 μM compound, replicates, read-out: normalized FRET signal relative to control without inhibitor
T1 construct: GST (N, cleaved yes); 13-residue glycine-serine linker […]; made in house; host or cells: E. coli BL21 (DE3) RIPL

[2] = biological target: T2, UL50_C79S+UL53 (Human cytomegalovirus, UniProt P16794); test: biochemical; assay type: binding; conditions: replicates, read-out: normalized FRET signal relative to control without inhibitor
T2 construct: GST (N, cleaved yes); 13-residue glycine-serine linker […]; made in house; host or cells: E. coli BL21 (DE3) RIPL

## C=CC(=O)Nc1cccc(Oc2ccnc3[nH]ccc23)c1 [GK2]
[1]
  remaining activity at 6.25 µM: 92%
[2]; 6.25 μM compound
  remaining activity at 6.25 µM: 93%
[2]; 50.00 μM compound
  remaining activity at 50 µM: 50%
